The other results are listed elsewhere or left out.

This assay deals with T1, C. trachomatis L2/434/Bu expressing GFP (CTL2-GFP).
T1 construct: L2/434/Bu GFP intracellular growth in HeLa cells
Also on record: species or system HeLa; C. trachomatis total inclusion area by high-content imaging, normalised to DMSO. The following applies: total inclusion area; 28.5 h, 10 µM; inhibitor. The method, boiled down: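 After bulk GFP and resorufin fluorescence reads, cells were fixed, stained with Hoechst and imaged by high-content microscopy. Inclusion area and number (GFP) stood in for chlamydial growth, nuclei count (Hoechst) for host cell viability. MICs were derived as for the bulk readout.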
As for `Cc1c(C(=O)C2=C(O)C(=O)N(CCCN(C)C)C2c2ccccn2)cnn1-c1ccccc1` (stereo not drawn) [CBK266516], the “% of control remaining” value was 97.7655.

Take `Cc1cc(C2CCCCCN2S(=O)(=O)c2ccc3[nH]c(=O)[nH]c(=O)c3c2)no1` (stereo not drawn) [CBK286404]: the “% of control remaining” value is reported as 92.579.

With `CCN(CC)C(=O)Cn1ncc2c3sc(C)cc3n(CC)c2c1=O` [CBK284167], the “% of control remaining” value is given as 61.9074.

Turning to `CC(=O)Nc1ccccc1NC(=O)COc1ccc(Br)cc1C` [CBK265072], the “% of control remaining” value is 122.463.

`COCc1cn([C@H]2CO[C@H]3[C@@H]2OC[C@H]3OC(=O)Nc2ccc(C)cc2)nn1` [CBK289489]: the “% of control remaining” value was found to be 83.3808.

For `Nc1ncnc2c1ncn2[C@@H]1O[C@H](CCl)[C@H](O)C1O` (stereo partly drawn) [CBK201252], the “% of control remaining” value was found to be 76.9805.

For the compound `Cc1ccc(S(=O)(=O)Nc2ccc(C3(c4ccc(NS(=O)(=O)c5ccc(C)cc5)cc4)c4ccccc4-c4ccccc43)cc2)cc1` [CBK261154], the “% of control remaining” value is 86.2674.

Consider `Cc1nn(CC(=O)NC(C)(C)C)c(=O)c2cc3sccc3n12` [CBK284021], for which the “% of control remaining” value was 91.3799.

Regarding `O=C(/C=C/c1ccco1)Nc1cccc2c(NC(=O)/C=C/c3ccco3)cccc12` [CBK264974], the “% of control remaining” value worked out at 102.055.

`COc1ccc(OC)c(C2C(C(=O)c3ccc(C)cc3)=C(O)C(=O)N2Cc2cccnc2)c1` (stereo not drawn) [CBK264492]: the “% of control remaining” value was 113.904.

For `Cc1cc(NC(=O)c2cc3ccccc3oc2=O)nc2c1c(=O)oc1ccccc12` [CBK287445], the “% of control remaining” value is on record as 104.275.

On to `Cc1cc(Cl)cc(C)c1NS(=O)(=O)c1ccc(N2CCCNCC2)c2ccccc12` [CBK004433C], for which the “% of control remaining” value is 51.8973.

On to `COc1cccc(CN(Cc2ncc[nH]2)Cc2ccco2)c1` [CBK282496], for which the “% of control remaining” value is listed as 119.204.

For the compound `CN1CCc2c(sc3nc(SCc4cccc5ccccc45)n(-c4ccccc4)c(=O)c23)C1` [CBK264556], the “% of control remaining” value is on record as 94.638.

As for `O[C@@H]1C[C@@H](c2nc(-c3ccccn3)no2)N(Cc2ccccc2)C1` [CBK288900], the “% of control remaining” value was 105.062.

On to `Cc1[nH]c2ccccc2c1C(=O)C(=O)Nc1ccc(C#N)cc1` [CBK269896], for which the “% of control remaining” value stood at 95.985.

In the case of `CC1(C)CC(=O)N(C2CCCCC2)C(=O)C1C#N` (stereo not drawn) [CBK009894], the “% of control remaining” value is 108.388.

With `CCCCN(C=O)c1c(CC)nc2c(OCCOc3ccc(F)cc3)cccn12` [CBK147631], the “% of control remaining” value was 118.069.

`COC(=O)CCc1ccc(S(=O)(=O)N2CCCN(Cc3cccc(Br)c3)CC2)cc1` [CBK062981]: the “% of control remaining” value was determined as 85.8333.

Regarding `COc1ccc(C(=O)N2CCC3(CCN(Cc4cc(=O)[nH]c(=O)[nH]4)C3)C2)cc1OC` (stereo not drawn) [CBK132162], the “% of control remaining” value is 85.8688.

With `O=C(Cn1ccnc1)N1CCCCC1c1nc2ccccc2[nH]1` (stereo not drawn) [CBK283936], the “% of control remaining” value stood at 92.6063.

In the case of `CC(C)C(=O)N1CCC(c2nc3ccccn3c2NC(C)(C)C)CC1` [CBK284745], the “% of control remaining” value worked out at 114.833.

For `CCCC(=O)Nc1nnc(-c2ccc(C)cc2C)o1` [CBK287700], the “% of control remaining” value came out at 94.2832.

For `COc1ccc(F)c(CN(CC(C)(C)CN)C(=O)Nc2ccccc2C(F)(F)F)c1` [CBK002412C], the “% of control remaining” value is listed as 84.2164.

As to `CCN1CCC(NC(=O)CSc2nc3ccccc3n2CCOC)CC1` [CBK306100], the “% of control remaining” value is 55.585.

As to `O=C(Nc1cccc2ccccc12)C1CCCN1S(=O)(=O)c1ccc(F)cc1` (stereo not drawn) [CBK138924], the “% of control remaining” value is 72.3475.

In the case of `Cc1cc(N2CCCC2)ccc1NC(=O)CCn1c(-c2cccs2)n[nH]c1=S` [CBK297883], the “% of control remaining” value was determined as 125.774.

As to `CCOC(=O)c1nc(N)oc1C` [CBK056636], the “% of control remaining” value is listed as 7.711.

On to `CN(Cc1ccc(-c2ccc(S(C)(=O)=O)cc2)nc1)C1CCNCC1` [CBK163942], for which the “% of control remaining” value is listed as 110.212.

Take `Cc1cc(/C=N/NC(=O)c2ccc(CN3CCOCC3)cc2)c(C)n1-c1ccccc1` [CBK263329]: the “% of control remaining” value is 104.926.

`Cc1ccccc1COc1cccn2c(N(C)CC3CCCO3)c(C)nc12` (stereo not drawn) [CBK147231]: the “% of control remaining” value turned out to be 88.3155.

On to `CCN(CC(=O)NCc1ccc(F)cc1)C(=O)c1ccc(C#N)cc1` [CBK305841], for which the “% of control remaining” value is 119.214.

For `CN(CCC#N)S(=O)(=O)c1ccc(OC(F)(F)F)cc1` [CBK044415], the “% of control remaining” value worked out at 92.1519.

On to `O=C(Nc1ccc(NC(=O)c2cc3ccccc3o2)cc1)c1ccc(-c2cccc([N+](=O)[O-])c2)o1` [CBK268579], for which the “% of control remaining” value is 132.822.

`COc1cccc(N2CCC(=O)N2)c1` [CBK087441]: the “% of control remaining” value is reported as 84.2016.

On to `Oc1cccc(Sc2cc(N3CCCC3)ncn2)c1` [CBK093749], for which the “% of control remaining” value amounted to 100.332.

Turning to `Cc1nn(C)cc1-c1cncn1CCCN1CCCCC1` [CBK281493], the “% of control remaining” value is 77.548.

Take `Cc1cc(C)n(CC(=O)N2CCOC(c3ccccc3Cl)C2)n1` (stereo not drawn) [CBK304927]: the “% of control remaining” value turned out to be 68.4289.

As for `Cc1cc2ccccc2n2c(SCC(=O)NCCc3ccccc3)nnc12` [CBK265682], the “% of control remaining” value worked out at 87.3701.

As for `O=C(CSc1nc(O)cc(O)n1)Nc1ccc(I)cc1` [CBK269467], the “% of control remaining” value is reported as 108.394.

Turning to `CCCn1c(SCc2csc(CC(=O)Nc3ccccc3C)n2)n[nH]c1=O` [CBK296969], the “% of control remaining” value was 102.722.

As to `Cc1ccc2c(c1)c(NS(C)(=O)=O)nn2Cc1ccc(C#N)cc1` [CBK048643], the “% of control remaining” value was found to be 88.7151.

Consider `CN(C)C1Cc2cccc3nc(S(C)(=O)=O)n(c23)C1` (stereo not drawn) [CBK007942], for which the “% of control remaining” value is on record as 73.6712.

For `Cc1nn(C)cc1CN1CCCC1c1nc(N(C)C)ncc1-c1cccc(Cl)c1` (stereo not drawn) [CBK286501], the “% of control remaining” value was 90.2414.

Regarding `Cc1cc(Br)ccc1C(=O)N1CC(C(N)=O)CCC1C` (stereo not drawn) [CBK305954], the “% of control remaining” value is on record as 5.586.

In the case of `Cc1ccn(CCC(=O)N2CCC[C@@H]3NC(=O)c4ccccc4OCC/C=C/C[C@@H]32)n1` [CBK292082], the “% of control remaining” value was 117.437.

`O=C(CCS(=O)(=O)c1ccccc1)Nc1ccccc1N1CCNCC1` [CBK028285T]: the “% of control remaining” value came to 94.8459.

For the compound `N#Cc1cccc(Nc2cncc(-c3cccc(C(=O)NCCO)c3)n2)c1` [CBK037810], the “% of control remaining” value is recorded as 113.746.

Regarding `CC1(C)CCCC1NC(=O)NCc1cccc(-c2nnc[nH]2)c1` (stereo not drawn) [CBK305236], the “% of control remaining” value stood at 54.5618.

For `Cc1cc(OCC2CCN(C(=O)OC(C)(C)C)CC2)ccc1Br` [CBK175091], the “% of control remaining” value came out at 104.065.

As to `O=C(CC1CC2CCC1C2)N1CCC(O)(c2ccccn2)CC1` (stereo not drawn) [CBK283833], the “% of control remaining” value is 94.0557.

On to `Cc1nc(C)c(C(=O)NCCN2CC(C)CC(C)C2)s1` (stereo not drawn) [CBK283071], for which the “% of control remaining” value turned out to be 101.579.

As for `OCCNc1ncnc2c1cnn2-c1ccccc1` [CBK077741C], the “% of control remaining” value is reported as 59.7895.

`CC(=O)NC(c1nccs1)C1CCCN(CC2CCCCC2)C1` (stereo not drawn) [CBK285152]: the “% of control remaining” value is listed as 102.941.

On to `Cc1ccc2ncc(C(=O)Nc3ccc(F)cc3F)c(=O)n2c1` [CBK287286], for which the “% of control remaining” value came to 110.85.

With `Cc1noc(C)c1S(=O)(=O)NCCc1c[nH]c2ccccc12` [CBK067311], the “% of control remaining” value is 93.7432.

Take `COc1ccc([C@@]23CC[C@@H](NC(=O)c4ccc(Br)c(C)c4)C[C@@H]2N(C)CC3)cc1OC` [CBK076656T]: the “% of control remaining” value turned out to be 82.7146.

Regarding `c1cnc(N2CCNCC2)c(OC2CCCCC2)n1` [CBK001837C], the “% of control remaining” value amounted to 84.3584.

`CC(=O)N[C@H](C(=O)N1CC[C@H]2NC(=O)[C@@H](Cc3ccccc3)NC(=O)C3(C/C=C/C[C@H]2C1)CCOCC3)[C@@H](C)OC(C)(C)C` [CBK292203]: the “% of control remaining” value is recorded as 96.934.

For the compound `O=[N+]([O-])c1nn(-c2ccccc2)[n+]([O-])c1Nc1ccc(Br)cc1` [CBK268504], the “% of control remaining” value was 76.1446.

With `O=C(O)CCCC(=O)Nc1cccc([N+](=O)[O-])c1` [CBK261530], the “% of control remaining” value was determined as 95.6998.

On to `COC(=O)c1c(NC(=O)c2cnccn2)sc2c1CCC(C)C2` (stereo not drawn) [CBK262654], for which the “% of control remaining” value was determined as 101.685.

For the compound `CN(C)c1cc(CNC(=O)c2cc3ccccc3oc2=O)ccn1` [CBK297917], the “% of control remaining” value is 90.613.

`O=C(O)CCNS(=O)(=O)c1cccc(Cl)c1` [CBK267328]: the “% of control remaining” value was found to be 97.7666.

As for `O=C(Nc1ccc(-c2nc3ccccc3s2)c(O)c1)c1ccc(-c2ccccc2)cc1` [CBK263979], the “% of control remaining” value was found to be 109.141.

In the case of `CC(C)(CN1C(=O)c2ccccc2C1=O)C(O)C(=O)O` (stereo not drawn) [CBK286582], the “% of control remaining” value came to 105.14.

In the case of `CCC(c1ccc(F)cc1)N(C)C(=O)Cn1cc(C(=O)NC2CCCCC2)ccc1=O` (stereo not drawn) [CBK286106], the “% of control remaining” value was determined as 8.797.

Regarding `C[C@H]1CN2CCCC2CN1Cc1ccc2c(c1)CCO2` (stereo partly drawn) [CBK285443], the “% of control remaining” value is listed as 94.7126.

`CCOC(=O)C1=C(Nc2ccc(O)cc2)C(=O)N(C(C)(C)C)C1` [CBK005677]: the “% of control remaining” value was determined as 62.22.

`COc1ccc(/C=C/C(=O)C2CC2)c(C(=O)O)c1OC` [CBK286639]: the “% of control remaining” value amounted to 79.4377.

On to `CC(=O)Nc1ccc(-c2csc(NC(=O)NS(=O)(=O)c3ccc(C)cc3)n2)cc1` [CBK297084], for which the “% of control remaining” value turned out to be 92.7486.

For `CC(Sc1nc2ccccc2c(=O)n1C1CC1)C(=O)N1CCOCC1` (stereo not drawn) [CBK306045], the “% of control remaining” value is 73.2735.

As for `COc1ccc(-n2nnnc2SCC(=O)c2ccc(O)c(O)c2)cc1` [CBK293969], the “% of control remaining” value is recorded as 102.885.

Consider `C(=N\Nc1nnnn1-c1ccccc1)/c1ccco1` [CBK007334], for which the “% of control remaining” value came to 87.2669.

On to `O=C(CNC(=O)c1ccc2c(c1)OCCO2)N/N=C/c1cccs1` [CBK261987], for which the “% of control remaining” value came out at 90.1873.

As to `O=C1c2ccccc2C(=O)c2c1cccc2S(=O)(=O)N1CCN(C(=O)C2CCCO2)CC1` (stereo not drawn) [CBK200038], the “% of control remaining” value amounted to 0.3745.

Turning to `CCOC(=O)c1ccc2ncc3c(=O)nc(N)sc3c2c1` [CBK291218], the “% of control remaining” value is listed as 99.7351.

Turning to `OCC[C@H]1CN2CCCC2CN1Cc1cccc(Cl)c1Cl` (stereo partly drawn) [CBK285429], the “% of control remaining” value was 84.8156.

These data come from publication PMC12040169 (PLOS Biology, 2025).
